Assay results as given in PMC4336329 (PLoS ONE, 2015).
The campaign covered roughly 310,000 compounds. About 2,200 (0.71%) showed an effect of 50% or more. Effects have a minus sign here. The list shows a part of the results. Where a SMILES comes first, the peptide text is derived from it. The star is where a group is joined. Boc = CC(C)(C)OC(=O)*

The compounds below were run against human ether-à-go-go-related gene (hERG) potassium channel (human, UniProt Q12809) (assay: primary screen, population patch clamp on CHO cells stably expressing hERG).
Sequence of human ether-à-go-go-related gene (hERG) potassium channel (Q12809 whole entry, looked up): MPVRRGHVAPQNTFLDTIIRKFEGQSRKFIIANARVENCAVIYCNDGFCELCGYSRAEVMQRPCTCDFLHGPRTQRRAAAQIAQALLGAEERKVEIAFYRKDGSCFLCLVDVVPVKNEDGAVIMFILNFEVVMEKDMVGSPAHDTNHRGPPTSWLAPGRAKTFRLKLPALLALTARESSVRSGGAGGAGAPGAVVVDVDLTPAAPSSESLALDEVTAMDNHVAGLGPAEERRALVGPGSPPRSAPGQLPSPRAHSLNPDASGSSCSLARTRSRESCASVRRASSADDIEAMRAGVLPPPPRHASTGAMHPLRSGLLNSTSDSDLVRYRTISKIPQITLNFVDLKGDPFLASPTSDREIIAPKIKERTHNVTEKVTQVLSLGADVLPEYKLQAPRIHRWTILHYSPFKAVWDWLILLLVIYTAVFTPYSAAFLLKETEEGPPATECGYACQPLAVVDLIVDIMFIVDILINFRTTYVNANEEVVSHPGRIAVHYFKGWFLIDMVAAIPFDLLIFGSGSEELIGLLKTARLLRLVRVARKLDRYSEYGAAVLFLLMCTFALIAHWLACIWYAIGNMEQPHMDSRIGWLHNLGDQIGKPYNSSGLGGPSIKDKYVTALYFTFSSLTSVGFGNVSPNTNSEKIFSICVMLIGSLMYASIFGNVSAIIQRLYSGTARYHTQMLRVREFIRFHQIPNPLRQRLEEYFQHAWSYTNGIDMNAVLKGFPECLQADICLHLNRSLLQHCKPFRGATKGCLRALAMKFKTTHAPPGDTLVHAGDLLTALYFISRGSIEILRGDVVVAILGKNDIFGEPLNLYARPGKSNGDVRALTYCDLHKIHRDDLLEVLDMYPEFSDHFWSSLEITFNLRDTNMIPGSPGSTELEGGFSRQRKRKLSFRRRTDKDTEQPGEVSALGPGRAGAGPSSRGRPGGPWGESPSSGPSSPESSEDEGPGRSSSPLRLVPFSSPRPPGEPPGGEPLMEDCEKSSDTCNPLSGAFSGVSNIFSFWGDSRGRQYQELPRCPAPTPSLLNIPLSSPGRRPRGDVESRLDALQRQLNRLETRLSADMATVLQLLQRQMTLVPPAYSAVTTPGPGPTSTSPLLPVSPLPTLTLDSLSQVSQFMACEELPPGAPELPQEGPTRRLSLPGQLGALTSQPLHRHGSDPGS

SMILES	hERG current change (%, negative = inhibition) at 1uM [%]
O=C(Nc1ccccc1C(=O)N1CCN(c2ccccc2)CC1)c1ccco1	-1.01
CC(C)=N/N=C1/NC(=O)C(Cc2ccccc2)S1 (stereo not shown)	19.7
Cc1ccc(-n2nnnc2SC(C)C(=O)NCC(=O)Nc2ccc(F)c(F)c2F)c(C)c1 (stereo not shown)	9.56
O=C(CN(Cc1ccc2c(c1)OCO2)C(=O)c1cnsn1)NC1CCCC1	7.58
Cc1ccc(CSCCC(=O)NCCC2=CCCCC2)cc1	9.65
CCCCNC(=O)C1c2ccccc2Oc2ccccc21	9.99
CCOC(=O)c1c(CN(C)C)n(-c2ccc(C)cc2)c2cc(Br)c(O)cc12	-7.43
CSc1ccccc1C(=O)Nc1ncn[nH]1	14.9
COc1ccc(CCN2CC34C=CC(O3)C(C(=O)NCc3ccccc3Cl)C4C2=O)cc1OC (stereo not shown)	9.83
Cc1ccc(SCC(=O)NC(C)(C)C)cc1	-12.8
C=CCn1c(SCC(=O)NCCc2ccccc2)nnc1C1CC1	-4.46
COc1ccc(NC(=O)Cn2nnc(C(=O)NCc3ccc4c(c3)OCO4)c2N)c(OC)c1	19.7
COc1ccc(OCCCC(=O)Nc2ncn[nH]2)cc1	7.46
COc1ccc2c(c1OC)C(=O)OC2Nc1ncc(Br)cc1Br (stereo not shown)	7.93
O=C(COc1ccccc1)Nc1cccc2nsnc12	-22
Cc1cc(OC(C)C(=O)NCC2CCCO2)cc(C)c1Cl (stereo not shown)	12
COCCCN(C(=S)Nc1cc(Cl)cc(Cl)c1)C(C)c1ccccn1 (stereo not shown)	-5.66
S=C(c1ccc(-c2ccc(Cl)cc2)o1)N1CCCCC1	10.7
Cc1cnn(C(=S)NCC2CCCO2)c1 (stereo not shown)	11.9
N#Cc1ccc(N2CCOCC2)nc1	1.37
COC(=O)c1ccc(NC(=O)C(=O)N2CCN(C(=S)Nc3cccc(OC)c3)CC2)cc1	7.75
COc1ccc(/C=C(/NC(=O)/C=C/c2ccccc2)C(=O)O)cc1	18.6

SMILES	hERG current change (%, negative = inhibition) at 1uM [%]
C=CCn1nnnc1SCC(=O)Nc1ccc(OC)cc1	10.9
CCn1c2ccccc2c2cc(NC(=O)c3cccc(OC)c3OC)ccc21	-5.03
COc1ccc(NC(=O)CSc2nc(C)cs2)cc1	6.79
COc1cccc(CN2CCC(C(=O)N3CCN(Cc4ccc5c(c4)OCO5)CC3)CC2)c1OC	-3.63
CC(C)CC(NC(=O)OC(C)(C)C)C(=O)NC(C(=O)NC(C)C(N)=O)C(C)C (stereo not drawn) (Boc-Leu-Val-Ala-NH2; configuration not given here)	-2.73
Cc1cccc(NC(=S)NN2CCN(C)CC2)c1	-7.96
CS(=O)(=O)C1=NSC2=NC(=O)/C(=C\c3cccn3-c3ccc(Cl)cc3)C(=N)N21	11.5
CC(C)(C)C(=O)CN1C(=O)NC2(CCc3ccccc32)C1=O (stereo not shown)	4.7
CCOC(=O)c1ccsc1NC(=O)c1ccco1	12.3
CN(CCOc1ccccc1)S(=O)(=O)c1ccc2oc3ccccc3c2c1	10.1
CCC(=O)Nc1cccc(-n2nnnc2SCC(=O)N(C(C)C)C(C)C)c1	-4.63
Cc1cccc(NC(=O)Nc2ccccn2)c1C	3.33
N#CC1=C(SCC(=O)Nc2ccccc2)NC(=O)CC1c1ccco1 (stereo not shown)	8.13
O=C(NNC(=O)C12CC3CC(CC(C3)C1)C2)c1cnccn1	7.92
NS(=O)(=O)c1cc2c(cc1Cl)NC(C1CC3C=CC1C3)NS2(=O)=O (stereo not shown)	15.4
Cc1cc(NS(=O)(=O)c2ccc(NC(=O)c3ccc([N+](=O)[O-])c(Cl)c3)cc2)no1	12.4
COc1ccc(NC(=O)C2Cc3ccccc3O/C2=N\O)cc1 (stereo not shown)	11.2
CCCCc1nc2cc(C(=O)N3CCCC3)ccc2o1	7.18
Cc1ccc(C(=O)NNC2=Nc3cc([N+](=O)[O-])ccc3OC2)cc1	11.8
O=C(CCCOc1ccccc1)Nc1cccc(C(=O)O)c1	8.12
COC(=O)CSc1nccc(C)n1	8.39
Cc1cccc(CN2CCN(C(=S)Nc3ccccc3)CC2)c1	8.54

SMILES	hERG current change (%, negative = inhibition) at 1uM [%]
O=C(C1CCN(S(=O)(=O)c2cccc3cccnc23)CC1)N1CC=C(c2ccccc2)CC1	-1.02
CC(C)N(CC#CCC1(O)c2ccccc2-c2ccccc21)C(C)C.Cl	-12.4
COc1cc(/C=C(\NC(=O)c2cc(OC)c(OC)c(OC)c2)C(=O)NC(C(=O)O)c2ccccc2)cc(OC)c1OC (stereo not shown)	12.8
N#Cc1ccc(S(=O)(=O)N2CCN(C(=O)[C@@H]3CCCN3C(=O)c3cccs3)CC2)cc1	-5.03
CCOc1ccc(NC(=O)CN(C)C(=O)c2cccnc2SC)cc1OCC	8.14
CCn1c(SCc2ccccc2)nnc1-c1ccc(S(=O)(=O)N2CCCCC2)cc1	-3.74
CC(C)C(=O)N(Cc1cc2ccccc2[nH]c1=O)C(C)(C)C	7.5
Cc1sc(NC(=O)CN2CCN(c3ccccn3)CC2)c(C#N)c1C	13.4
CCOc1ccc(NCC(=O)Nc2ccc(Cl)cc2C)cc1	5.84
Cc1ccc(-c2csc(NC(=O)CSC3=NCCS3)n2)cc1	16.6
O=c1cc(-c2ccccc2)nc2cc(-c3ccc(F)cc3)[nH]n12	14.9
COc1ccc(C=O)cc1CN1C(=O)c2ccccc2C1=O	11.3
O=S(=O)(Nc1ccncc1)c1ccc(Cl)cc1	-3.34
COc1ccc(N2CCN(S(=O)(=O)c3ccc(C(=O)NC4CCCC4)cc3)CC2)cc1	-3.56
CNC(=O)c1nnn(-c2ccccc2)c1C(=O)NC	-0.417
Cc1ccc(Cl)cc1N1CCN(C(=O)CN(C2CCCCC2)S(C)(=O)=O)CC1	11.2
O=C(NNC(=O)c1c(F)cccc1F)c1ccccc1-n1cccc1	8.43
CCCN1CCN(C(=O)C2CCN(c3ncnc4c3nc3n4CCCCC3)CC2)CC1	13.3
CC(=O)Nc1nc(=S)n(-c2ccccc2)[nH]1	7.42
COC(=O)C1C2c3ccccc3OC1(C)N=c1s/c(=C/c3cn(C)nc3C)c(=O)n12 (stereo not shown)	11.5
O=C(c1nc2ccccn2c1CNCCCn1ncc2ccccc21)N1CCOCC1	12.3
CCc1ccccc1NC(=S)N(CCCN1CCN(C)CC1)Cc1cccs1	-7.26

SMILES	hERG current change (%, negative = inhibition) at 1uM [%]
CCN(CC)c1ccc2cc(-c3nnc(-c4ccccc4)o3)c(=O)oc2c1	7.29
COc1ccc(CCN2CC(C(=O)NCc3ccc(F)cc3)CC2=O)cc1OC (stereo not shown)	6.95
CCC(C)NC(=O)CN1C(=O)CC(C)(C)S(=O)(=O)c2ccccc21 (stereo not shown)	0.496
O=C(COC(=O)CNC(=O)c1ccc(Cl)cc1)Nc1ccc(Cl)cc1C(F)(F)F	19.3
COc1ccccc1NC(=O)NCCN1CCN(C(=O)Nc2ccccc2OC)CC1	3.86
COc1ccc(CN2CCNC(=O)C2CC(=O)NCCCn2cccn2)cc1C (stereo not shown)	-19.8
CC(=O)c1ccc(NS(=O)(=O)c2ccc(C(C)(C)C)cc2)cc1	7.28
O=C(NC1CCCCC1)C1CCCN(c2nnnn2-c2ccccc2)C1 (stereo not shown)	9.21
CCC1=C2CC[C@H]3C(=O)N(C)C(=O)[C@H]3[C@H]2[C@@]2(Cc3ccccc3)C(=NCCOC)OC(=O)N2C1=O	-11.2
Cc1cc(C)cc(OCc2nnc(SCC(=O)c3ccc(Br)cc3)o2)c1	1.82
COc1ccc(NS(=O)(=O)c2cc(C(=O)N3CCN(C(C)=O)CC3)ccc2Cl)cc1	13.2
O=C(O)c1c2c(nc3ccc(S(=O)(=O)N4CCC(C(=O)NCc5ccc(Cl)cc5)CC4)cc13)CCCC2	18.5
CCOC(=O)c1c(C)[nH]c(C(=O)OCC(=O)Nc2sc(C(=O)N(C)C)c(C)c2C(=O)OCC)c1C	-4.19
C=C1C(C(=O)Nc2ccc(OC)cc2)C1C(=O)Nc1ccc(OC)cc1 (stereo not shown)	14.2
CCN(CC)CCCNc1nc(-n2nc(C)cc2C)nc2sc3c(c12)CC(C)(C)OC3	2.93
COc1ccccc1CNS(=O)(=O)c1ccc2c(c1)CCCN2C(C)=O	13.2
CCCCNC(=O)C1C2C=CC3(CN(Cc4ccc(C)cc4)C(=O)C13)O2 (stereo not shown)	13.1
Cc1[nH]c2ccccc2c1C1(O)C(=O)N(C(C)C)c2ccccc21 (stereo not shown)	18.8
Cc1nnc(SCC(=O)Nc2ccc(O)cc2)c2ccccc12	22.6
CC(=O)NCCCC(=O)NNC1CC(=O)N(c2cccc(Cl)c2)C1=O (stereo not shown)	16.2
CC(C)N1C(=O)C(=O)N(CC(=O)N2CCc3ccccc32)C1=O	3.95
O=C(NCc1ccc(Cl)cc1)c1cc(-c2ccco2)on1	11.6
